Laboratory results reported in the supplement of paper PMC11417369.
± gives the standard deviation of the averaged measurements. The list shows a part of the results.

What follows are sequences tested on PfAP2-G AP2 domain (GST-tagged) (assay: gcPBM binding intensity (ln(normalized median fluorescence intensity)); higher = stronger DNA binding).
In short: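 Probes on an Agilent 4 × 180k array were primer-extended, double-stranded and 36 bp long, taken from intergenic genomic regions, with negative controls added. GST-tagged P. falciparum DNA-binding domains from E. coli, about 25 μg on average, were applied to the array for 1 h in 1× PBS containing 1% milk, 0.2 mg/ml BSA, 0.5% salmon testes DNA and 0.03% Triton X-100. Binding intensity, obtained after Alexa488 anti-GST antibody detection and a 488 nm scan, is the highest Masliner-normalised natural-log median intensity across replicate spots of either probe orientation.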

Question: With “TTTTTCCTAACATATTATATACTTGAATATTTATTA [CACACA_negctrl_site156]” as the sequence, how does the “gcPBM binding intensity (ln)” value read?
Answer: 9.74 ± 0.12

Question: For “AAACAAATATTTATCACAATGTCATTTTGTTAACAT [GTGCAC_negctrl_site171]”, which “gcPBM binding intensity (ln)” value is on record?
Answer: 9.835 ± 0.035

Question: How did the “gcPBM binding intensity (ln)” value turn out when “ATATAAGAAATAAAGAAAAATGTGTTTTTTTTTTTT [XGTACX_negctrl_site396]” was run?
Answer: 9.51 ± 0.18

Question: “AAAAAAAAAAAAAACTGTACCAAAAAGAATATATAC [XGTACX_site8345]” was tested. Which “gcPBM binding intensity (ln)” value did it give?
Answer: 10.9 ± 0.51

Question: Which “gcPBM binding intensity (ln)” value does the source give for “TTTAATTTTATATAGAGTACAAAAAAATAGAAAGAT [XGTACX_site3870]” here?
Answer: 11.3 ± 0.77

Question: With “ATATATATATATATATGTACATAAATATTTTAAAAT [XGTACX_site4980]” as the sequence, how does the “gcPBM binding intensity (ln)” value read?
Answer: 11.3 ± 0.75

Question: “TTTGAGATAAAAGACTGTACTTAGAATGTATAAAAA [XGTACX_site203]” was tested. Which “gcPBM binding intensity (ln)” value did it give?
Answer: 11.3 ± 0.79

Question: “ACAATAAAAATAAAAAGTACAAATAAAAAAAATAAA [XGTACX_site6718]” was tested. Which “gcPBM binding intensity (ln)” value did it give?
Answer: 11.4 ± 0.9

Question: “TTGTTTCTACAATTTAATAAAATACGTTTTCAAAAA [XGTACX_negctrl_site377]” was tested. Which “gcPBM binding intensity (ln)” value did it give?
Answer: 9.95 ± 0.27

Question: For “TACTCCTTAAATATATGTAAAGGAAGAAAAAAAAAA [XGTACX_negctrl_site306]”, which “gcPBM binding intensity (ln)” value is on record?
Answer: 10 ± 0.22

Question: With “ATATATATATATATATGTACACATATACGCTTTTTC [XGTACX_site3838]” as the sequence, how does the “gcPBM binding intensity (ln)” value read?
Answer: 11.4 ± 0.98

Question: For “AATATATGTTTAATTTCACACACAAATATACATTTT [CACACA_site9385]”, which “gcPBM binding intensity (ln)” value is on record?
Answer: 10.04 ± 0.049

Question: For “AAGTAAAATAAGTATACACACATAAATATATATATA [CACACA_site685]”, which “gcPBM binding intensity (ln)” value is on record?
Answer: 9.95 ± 0.16

Question: With “TTTTCTTGTAAATTACGTACGAATGTGTAGAGAAAT [XGTACX_site1339]” as the sequence, how does the “gcPBM binding intensity (ln)” value read?
Answer: 11.2 ± 0.65

Question: With “ACTTGTAAGAAACACACACACACACCCATATATATA [CACACA_site796]” as the sequence, how does the “gcPBM binding intensity (ln)” value read?
Answer: 10.2 ± 0.14

Question: For “TCTATAAAGGAATATACACACATATATATATATATA [CACACA_site410]”, which “gcPBM binding intensity (ln)” value is on record?
Answer: 9.9 ± 0.32

Question: Which “gcPBM binding intensity (ln)” value does the source give for “TATAATAATACGTATTGTACTATTAGGTTAATTCGT [XGTACX_site264]” here?
Answer: 11.1 ± 0.66

Question: “TATATATATAAATACACACACATATATATATATATA [CACACA_site4867]” was tested. Which “gcPBM binding intensity (ln)” value did it give?
Answer: 10.3 ± 0.67

Question: How did the “gcPBM binding intensity (ln)” value turn out when “TATTTATTTATTTATTTATTTATTTATTTATATTTA [CACACA_negctrl_site398]” was run?
Answer: 9.4 ± 0.085

Question: How did the “gcPBM binding intensity (ln)” value turn out when “TATATATTTTTATTATGTACATATTAACAATGTGTT [XGTACX_site879]” was run?
Answer: 11.1 ± 0.76

Question: For “ATCCTCTTTACAATATGTACATAAATATATATTTAT [XGTACX_site8001]”, which “gcPBM binding intensity (ln)” value is on record?
Answer: 11.3 ± 0.69

Question: “TAAAATATAAAACACACACACATATATATATATATT [CACACA_site224]” was tested. Which “gcPBM binding intensity (ln)” value did it give?
Answer: 9.7 ± 0.042

Question: Which “gcPBM binding intensity (ln)” value does the source give for “TTATATAAATTATTTACACACAAACATTTATACTTT [CACACA_site3449]” here?
Answer: 9.86 ± 0.085

Question: “TTTCTAATTTATATCACACACATATTTATATAGTAA [CACACA_site6813]” was tested. Which “gcPBM binding intensity (ln)” value did it give?
Answer: 9.9 ± 0.18

Question: For “GGCGTATGTGTATATACACACCCACGTATATAAATA [CACACA_site7489]”, which “gcPBM binding intensity (ln)” value is on record?
Answer: 10.4 ± 0.37

Question: “ATAAAATAAACATAAATAAACATAAATAAACAAAAA [CACACA_negctrl_site1270]” was tested. Which “gcPBM binding intensity (ln)” value did it give?
Answer: 9.805 ± 0.064

Question: “AGGTATATATACATATGTACGTATATATATATATAT [XGTACX_site5115]” was tested. Which “gcPBM binding intensity (ln)” value did it give?
Answer: 11.4 ± 0.75

Question: With “TATAATACAACATGCACACATATATATGTGAATCTC [CACACA_site2490]” as the sequence, how does the “gcPBM binding intensity (ln)” value read?
Answer: 10.06 ± 0.078

Question: Which “gcPBM binding intensity (ln)” value does the source give for “TTTAAAAATAAAAGTACACACATAAACATATTACAC [CACACA_site1428]” here?
Answer: 11.5 ± 0.94

Question: For “AAGATACCCCAAAATTGTACATATTAAAATAATAAA [XGTACX_site3603]”, which “gcPBM binding intensity (ln)” value is on record?
Answer: 11.3 ± 0.95

Question: With “TATTCCCTTCTTCCTTCTGTTTTTGATATTAAAGGG [GTGCAC_negctrl_site270]” as the sequence, how does the “gcPBM binding intensity (ln)” value read?
Answer: 9.72

Question: With “ATACTTTATTCGTTAGCACACAATTCAAGTTGATTC [CACACA_site1123]” as the sequence, how does the “gcPBM binding intensity (ln)” value read?
Answer: 10.1 ± 0.13

Question: “ATGAAAGTAAGACATGCATGGAATTTTTTTTATTAG [TGCATGCA_site348]” was tested. Which “gcPBM binding intensity (ln)” value did it give?
Answer: 9.705 ± 0.078

Question: How did the “gcPBM binding intensity (ln)” value turn out when “AAAAAAAAAAATAAATAAATAAATAAATATATATAT [TGCATGCA_negctrl_site468]” was run?
Answer: 9.68 ± 0.51

Question: “TACATACATATATATACACACATATATAATATATAT [CACACA_site388]” was tested. Which “gcPBM binding intensity (ln)” value did it give?
Answer: 10.1 ± 0.21

Question: “TATATATACATATACACACATACGTACATACATATA [CACACA_site3585]” was tested. Which “gcPBM binding intensity (ln)” value did it give?
Answer: 11.4 ± 0.82

Question: With “ATATTCATATATACTTCACACACATTTTATCATTCA [CACACA_site8784]” as the sequence, how does the “gcPBM binding intensity (ln)” value read?
Answer: 9.99 ± 0.11

Question: Which “gcPBM binding intensity (ln)” value does the source give for “GGAATATTTTATGAGTGTACATTTTTTTTTTTTTTT [XGTACX_site2370]” here?
Answer: 11.2 ± 0.59

Question: Which “gcPBM binding intensity (ln)” value does the source give for “TTTCTTTTTTTTTTTTTTTCTTTTTTTTTTTTTTTC [CACACA_negctrl_site1025]” here?
Answer: 9.66 ± 0.028

Question: Which “gcPBM binding intensity (ln)” value does the source give for ATAATCCAACTTTGAGTGCGTGGTGTTTTTTTTTTC here?
Answer: 10.01 ± 0.035

Question: How did the “gcPBM binding intensity (ln)” value turn out when “CTGAAAAAAAAGCTTGCACACGTATTTGCTTTATGT [CACACA_site8427]” was run?
Answer: 10.5 ± 0.19

Question: How did the “gcPBM binding intensity (ln)” value turn out when “TTACTTATAAATAAATATACAAAAATGTTATATATA [XGTACX_negctrl_site223]” was run?
Answer: 9.625 ± 0.078

Question: Which “gcPBM binding intensity (ln)” value does the source give for “ATATGTCACTTGTATACACACATATATATTTCAATC [CACACA_site3256]” here?
Answer: 10.2 ± 0.12

Question: With “GAAAATAGCTAAAATACACACAATTAAAAATTATTA [CACACA_site3506]” as the sequence, how does the “gcPBM binding intensity (ln)” value read?
Answer: 9.84 ± 0.16

Question: Which “gcPBM binding intensity (ln)” value does the source give for “AGGAATATAAAGTGCACACATAATTTGGGGGCAAAA [CACACA_site258]” here?
Answer: 11 ± 0.54

Question: How did the “gcPBM binding intensity (ln)” value turn out when “TTTTTTTTTTTTGAAGTGCATTACTTTTTTTGTATT [GTGCAC_site9811]” was run?
Answer: 9.91 ± 0.23

Question: Which “gcPBM binding intensity (ln)” value does the source give for “TTTTTTGTGTTTGGTACACACGTTATAAAAAATAAA [CACACA_site4866]” here?
Answer: 11.1 ± 0.88

Question: With “AGGGACATCTATATCACACACAAAAATTAGTCCCTT [CACACA_site7330]” as the sequence, how does the “gcPBM binding intensity (ln)” value read?
Answer: 10.3 ± 0.15

Question: With “TTGTAAAACTTATAATGTACATTTTTTTTTTTTTTT [XGTACX_site5398]” as the sequence, how does the “gcPBM binding intensity (ln)” value read?
Answer: 11 ± 0.51

Question: Which “gcPBM binding intensity (ln)” value does the source give for “ATAAGAAAATATAAAATGCACACTATAAATTGTATA [CACACA_site143]” here?
Answer: 9.88 ± 0.15

Question: Which “gcPBM binding intensity (ln)” value does the source give for “TATATAGAGAGATATGCACACTGTATGAATGCCCCC [CACACA_site5476]” here?
Answer: 11.1 ± 0.69

Question: For “TATACCTATATACATACATGCAAATATATATTCATA [TGCATGCA_site269]”, which “gcPBM binding intensity (ln)” value is on record?
Answer: 9.89 ± 0.028

Question: For “TTTTTTTTTTTTTGCACACACATTGAATTATTATTC [CACACA_site197]”, which “gcPBM binding intensity (ln)” value is on record?
Answer: 9.93 ± 0.38

Question: Which “gcPBM binding intensity (ln)” value does the source give for “TTTATATACATTTTAAATTTTAATGTAACCCATGGG [TGCATGCA_negctrl_site115]” here?
Answer: 10.2 ± 0.33

Question: Which “gcPBM binding intensity (ln)” value does the source give for “TATATATTTATAAATGAACACACACCCAATTTGAAT [CACACA_site9113]” here?
Answer: 10.5 ± 0.26

Question: For “TTTATTTTTATAAGAGCATGCACTGTTTAAAATGGT [TGCATGCA_site628]”, which “gcPBM binding intensity (ln)” value is on record?
Answer: 10.1 ± 0.42
